Biological target: T1, Recombinant human angiopoietin-2 (human, UniProt O15123 19-496)
T1 sequence (looked up): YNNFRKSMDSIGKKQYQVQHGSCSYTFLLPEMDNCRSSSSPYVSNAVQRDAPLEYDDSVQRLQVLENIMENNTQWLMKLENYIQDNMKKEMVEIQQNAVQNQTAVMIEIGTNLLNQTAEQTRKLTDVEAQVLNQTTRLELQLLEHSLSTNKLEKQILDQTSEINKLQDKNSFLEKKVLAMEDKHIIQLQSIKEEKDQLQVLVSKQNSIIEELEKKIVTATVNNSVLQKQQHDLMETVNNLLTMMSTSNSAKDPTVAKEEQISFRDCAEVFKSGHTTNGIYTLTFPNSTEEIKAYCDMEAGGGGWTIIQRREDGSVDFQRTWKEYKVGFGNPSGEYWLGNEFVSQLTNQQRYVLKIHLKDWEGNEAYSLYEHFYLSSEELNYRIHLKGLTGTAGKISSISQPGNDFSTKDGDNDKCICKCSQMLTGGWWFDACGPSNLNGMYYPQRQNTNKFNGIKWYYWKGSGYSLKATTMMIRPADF
Assay: ELISA

B1: Recombinant VWF A1 domain fused to Fc (Fc fusion)
chain: not shown
  EC50: 6.1 ± 1 nM

— PMC10579536 (Research and Practice in Thrombosis and Haemostasis, 2023)
